The values below come from paper PMC12136788.

Some of the results follow.

Sequences and labels used below:
T1: UNK ZnF1-6 (called full-length) (human, UniProt Q9C0B0 30-357)
T1 sequence: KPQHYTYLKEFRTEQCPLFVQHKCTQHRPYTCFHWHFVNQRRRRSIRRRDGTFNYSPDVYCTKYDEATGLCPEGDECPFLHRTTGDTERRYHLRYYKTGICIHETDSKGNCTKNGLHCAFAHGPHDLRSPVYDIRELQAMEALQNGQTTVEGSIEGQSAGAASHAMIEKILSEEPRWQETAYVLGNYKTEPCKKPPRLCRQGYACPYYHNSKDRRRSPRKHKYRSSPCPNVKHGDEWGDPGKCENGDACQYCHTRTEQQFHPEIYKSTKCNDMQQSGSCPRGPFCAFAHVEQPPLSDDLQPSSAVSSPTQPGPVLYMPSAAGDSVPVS

B1: chr4:16162636:16162738:-|3pUTR|ENSG00000169762|unk|total|mutant (ssRNA)
RNA: GGGAGUUCUACAGUCCGACGAUCACCUUAAAUAAGACAUGAUGAACCGCCGCAUUUUGCCGGGUUAAAAAAAAAUGCUAAACCCGUUUAUUUAUUAAAAAAAUAAUUAAUGAAGGCUAUGCAUUACUGGGAAAAAUCCUUCAUCAACAGAGGAUUGAGCAUCA
B2: chr12:1788447:1788559:+|3pUTR|ENSG00000006831|unk|FALSE|bound_elsewhere (ssRNA)
RNA: GGGAGUUCUACAGUCCGACGAUCUUUCUUUUUUGGCCCUAGGCUGGUUGGGACCUCUACAGCUUCAUUCUUUCACCAUUAAAUAGUGGCCUUUUUCAGUAUUUUCCCUCUUCCCCUUUAUAAAUUAUGCUAAAGCCACAAAGCCAACAGAGGAUUGAGCAUCA
B3: chr1:93888438:93888539:-|3pUTR|ENSG00000023909|msi1|FALSE|unique (ssRNA)
RNA: GGGAGUUCUACAGUCCGACGAUCAGAUAUUUUUCCUGUCAUUGAUGAGAUAUAUCAGAGUAACUGGAGUAGCUGGGAUUUACUAGUAGUGUAAAUAAAAUUCACUCUUCAAUACAUGAAUGGAAACUUAAAUUUUUUUUUAUGCAACAGAGGAUUGAGCAUCA
B4: chr2:106801599:106806677:-|three_prime_utr|ENSG00000144057|control|control|control (ssRNA)
RNA: GGGAGUUCUACAGUCCGACGAUCAAUCAAUGUGCAAUAAGGUACUACUGUUGUACUCAAAGUCACAAAAGAAUACUUGAAGAUAGAUUUUAGACAGUGUAGUUUUGAGUCUUUAAACAGUAAUUUAGUGGUGGUCAUGAUAAUCAACAGAGGAUUGAGCAUCA
B5: chr22:39520512:39520623:+|5pUTR|ENSG00000128272|unk|total|mutant (ssRNA)
RNA: GGGAGUUCUACAGUCCGACGAUCUCUAUAAAGGGCCGGCGGGCGGCCACGGCAGCCAUUUCUACUUUGCCCGCCCACAGAUGCCGUUUUCUCUGCGCGUGUGCGUUUUCCCUCCUCCCCGCCCUCAGGGUCCACGGCCACCAUCAACAGAGGAUUGAGCAUCA
B6: chr11:103061782:103061883:-|3pUTR|ENSG00000137692|unk|total|mutant (ssRNA)
RNA: GGGAGUUCUACAGUCCGACGAUCAAGACUGUUGGCCUUGACUUCUGGGAUAAUGAUUUGCUGAUGCAGCUAAUAAACAUUUCCCGGUAUUGGAAAAAUGCUCCUACUUUCCGCUCUGGGUUUCUAUAAAAGCUGCCAAGGUCUCAACAGAGGAUUGAGCAUCA
B7: chr8:58815337:58815724:-|CDS|ENSG00000198846|control|control|control (ssRNA)
RNA: GGGAGUUCUACAGUCCGACGAUCUAGUCUCCCCAGGAACAUAGCCCCCAAGCCGAAUAACCAAAUGCCAGUGACUGUCUCUAUAGCAAACAUGGCUGUGUCCCCUCCUCCUCCCCUCCAGAUCAGCCCGCCUCUUCACCAGCACAACAGAGGAUUGAGCAUCA
B8: ENSG00000069329:stop:overlap|stop_codon|ENSG00000069329|stop_codon|NA|stop_codon (ssRNA)
RNA: GGGAGUUCUACAGUCCGACGAUCUGGAGAAGGGGCCCCACAGACCGUUCGGGAUUAAGACCAGCCCGAUUUGGCCUGCGGGAUAGGGGACAGCAGGAGGAAGGCCGCGGGCAGGCUGAUCCGGGCCGGGGUGGGCGGCGGCUCCAACAGAGGAUUGAGCAUCA
B9: ENSG00000112208:stop:overlap|stop_codon|ENSG00000112208|stop_codon|NA|stop_codon (ssRNA)
RNA: GGGAGUUCUACAGUCCGACGAUCAGCAUUCUAAAGGAGCUGGUUCCAAAACUCUGCAACAAAAUGCUGAAAGCAGAUUCAAUUAGUCUUCAAACCUAAGAGCAUUUACACAAUACACAAGGUGUAAAAAUGAUAAAAUACUAUCAACAGAGGAUUGAGCAUCA
B10: chr11:92891788:92891889:+|3pUTR|ENSG00000165323|msi1|total|mutant (ssRNA)
RNA: GGGAGUUCUACAGUCCGACGAUCAUGAGGCUUUUUGGGUUCCAUUUGGUGGGUGGGGGAGGAAGUUAAAGUUGUUUGAACAUCCGAAAGAAUGUGAUUAUCUGGUUGGUUUUGUGUUUUCUGGUAAAUAUUCCAGUUGGUAAACAACAGAGGAUUGAGCAUCA
B11: chr17:30468017:30468118:+|3pUTR|ENSG00000108582|unk|total|mutant (ssRNA)
RNA: GGGAGUUCUACAGUCCGACGAUCGCUAAAAUUUUGGGGAUAUGAUUUGGGUCUUUGAUUAAUGUCAGCUGAACUUGGAUUUCCCGUUCAUGAAGAAAUCUCUCCCAAUACCCAUUUAUCCUAUUUUCCGCAAUAAUUCGUUAACAACAGAGGAUUGAGCAUCA
B12: chr15:34852525:34852627:-|3pUTR|ENSG00000021776|unk|total|mutant (ssRNA)
RNA: GGGAGUUCUACAGUCCGACGAUCCCCGCAUUUCCCAAACUUAUCCGAGCAUAAAACUUUGUUUUUGUUUUUUUUUAAUAAGACCGGCCGCUAUUUCCUCCGAACACAGUUUGGGAAACUUUUUGUUCAUUUGUUUUAAUAAGACAACAGAGGAUUGAGCAUCA
B13: chr17:79834786:79834887:-|CDS|ENSG00000141582|unk|total|mutant (ssRNA)
RNA: GGGAGUUCUACAGUCCGACGAUCAAUGAUGCCGGCCCCCAAAGAGGCUGUGACGGGCAACGGGAUUGGGGGCAAGAUGAAGACCGUCAAGAACAAGAACAAGAACGGACGCAUCGUGAUCGUGAUGAGCAAAUACAUGGAGAACAACAGAGGAUUGAGCAUCA
B14: ENSG00000107863:be:win_4751|CDS|ENSG00000107863|bound_else_gene|NA|bound_elsewhere_windowed (ssRNA)
RNA: GGGAGUUCUACAGUCCGACGAUCCCUCAGAUUAUUCCACCACAUCGUCUGCUACAUACUUGACUAGCCUGGACUCCAGUCGACUGAGCCCUGAGGUGCAAUCCGUGGCAGAGAGCAAGGGGGACGAGGCAGAUGACGAGAGAACAACAGAGGAUUGAGCAUCA
B15: chr19:35623609:35623710:+|3pUTR|ENSG00000249115|unk|total|mutant (ssRNA)
RNA: GGGAGUUCUACAGUCCGACGAUCGCCUUCCCGUUUGUACCGUUUCUUUUUUUACAUGUAAAUCAGCCAUUUGGAAUUUAUCCCCGCACAUGGAUCCAAUUUUGUCUUAUUUUACAUAUAUCCCCGCCGCACUUACUGAAAUUCCAACAGAGGAUUGAGCAUCA
B16: chr5:41382290:41382405:-|CDS|ENSG00000182836|unk|FALSE|unique (ssRNA)
RNA: GGGAGUUCUACAGUCCGACGAUCGGCCAAAAAGCUCAUGCGGAAAUGGUUAGCCACUCAGACAAUGAAUUUUACUGGCCAGCUAGGAGCUGGAAUUCGUUAUUUUGAUCUUCGAAUUUCCACCAAGCCCAGAGACCCCGACAACAACAGAGGAUUGAGCAUCA
B17: chr6:63788104:63788249:-|CDS|ENSG00000188107|control|control|control (ssRNA)
RNA: GGGAGUUCUACAGUCCGACGAUCUAAAUCCAUUAUCGCCCCAGGAAGACUGGUUGGUCUCAAUGUCUUCAGUCAGUUUUAUGUAGGUGGCUACAGUGAAUACACUCCAGAUCUCUUACCAAAUGGAGCAGAUUUUAAAAAUGGCAACAGAGGAUUGAGCAUCA
B18: chr11:36273890:36273991:-|3pUTR|ENSG00000110442|msi1|total|mutant (ssRNA)
RNA: GGGAGUUCUACAGUCCGACGAUCGGUGAAGAAGUGGGAAUAAUUGGAACUAAACAACAGUUCUAAAACUUCCAUGAUUUUUGCCGCUUCUUUUGUCCCCAAGUUGAAGCUUUUGGCCAGUACCUUCUCCCGUUUUUAAAGAUGCAACAGAGGAUUGAGCAUCA
B19: chr8:103442975:103443076:+|3pUTR|ENSG00000164934|msi1|total|mutant (ssRNA)
RNA: GGGAGUUCUACAGUCCGACGAUCGGACCCGAUUAAUUGCAAACAUUUCCGUUAUAUGUGCCGAGCUUUAUUGUUACUCCUUUCCGCUACCCUGAAAAAUGAUCCUUAAAGGUGGCCCCGUUGGUAAGACUGUUUUAUCCUUAACAACAGAGGAUUGAGCAUCA
B20: chr7:151395775:151396196:-|CDS|ENSG00000187260|control|control|control (ssRNA)
RNA: GGGAGUUCUACAGUCCGACGAUCCAGCGGCUGCUGCCACCAGACGCUGCGGGGCCACACGGGUGCAGUGCUGUGCCUAGUGCUAGACACGCCCGGCCACACGGCCUUCACAGGCAGCACCGACGCCACCAUCCGUGCCUGGGACAACAGAGGAUUGAGCAUCA
B21: chr5:148442723:148442824:+|3pUTR|ENSG00000145868|unk|total|mutant (ssRNA)
RNA: GGGAGUUCUACAGUCCGACGAUCUUAUGAGCUUAAAAAAAAGUGAGUUUGAGAGGGAAAUGGAAAAGUUUCCAGAGUAUUUCCCGUAAUUUAUUUCCACAUUGAAUUGUGUAUAUGCUUUAUCUUGAAUAUAAAAUAAAAGUUCAACAGAGGAUUGAGCAUCA
B22: ENSG00000147256:stop:overlap|stop_codon|ENSG00000147256|stop_codon|NA|stop_codon (ssRNA)
RNA: GGGAGUUCUACAGUCCGACGAUCCAUUGCUCCGUGUGCCCCGGGAGAAGGAGGCCAAAACUGGCGUCAGCUACUUCUUUCCUUAGAUGUUUUUCCUUCUAUAAGGUGCCAGACAGGGGAAAAGGGUGGGGGUACAUCUGGGAUCAACAGAGGAUUGAGCAUCA

This assay concerns the target T1, UNK ZnF1-6 (called full-length). The assay can be described thus: nsRBNS (natural sequence RNA bind-n-seq); RBNS binding buffer (assumed for nsRBNS): 25 mM Tris pH 7.5, 150 mM KCl, 3 mM MgCl2, 0.01% Triton X-100, 500 ug/ml BSA, 20 U/ml SUPERase-In, 4 C; UNK is unkempt and MSI1 is Musashi-1; names of the RNAs are library labels; protein concentration not given here; high values mean tight binding.
Take B1: the binding signal is 0.467 enrichment R.

With B2, the binding signal amounted to 1.29 enrichment R.

Regarding B3, the binding signal came to 1.25 enrichment R.

B4 registered a binding signal of 0.614 enrichment R.

Consider B5, for which the binding signal was found to be 0.941 enrichment R.

B6 had a binding signal of 0.482 enrichment R.

B7: the binding signal came to 1.56 enrichment R.

B8: the binding signal is 1.09 enrichment R.

B9 gave a binding signal of 0.548 enrichment R.

In turn, B10 came in with a binding signal of 0.882 enrichment R.

B11 showed a binding signal of 0.421 enrichment R.

B12: the binding signal came out at 0.868 enrichment R.

In turn, B13 yielded a binding signal of 0.734 enrichment R.

In turn, B14 had a binding signal of 0.755 enrichment R.

B15 registered a binding signal of 0.718 enrichment R.

Turning to B16, the binding signal worked out at 0.472 enrichment R.

B17 returned a binding signal of 0.369 enrichment R.

Molecule B18 yielded a binding signal of 0.341 enrichment R.

Take B19: the binding signal came out at 0.233 enrichment R.

As to B20, the binding signal was 0.529 enrichment R.

Turning to B21, the binding signal turned out to be 0.741 enrichment R.

For the molecule B22, the binding signal worked out at 0.84 enrichment R.
